The text below walks through data of patent US20200199241A1 (Chugai, published 2020).

First the molecules themselves.
B1: IgG1-F34 (antibody)
heavy: QVQLQESGPGLVKPSETLSLTCAVSGHSISHDHAWSWVRQPPGEGLEWIGFISYSGITNYNPSLQGRVTISRDNSKNTLYLQMNSLRAEDTAVYYCARSLARTTAMDYWGEGTLVTVSS[here human IgG1 constant region with T256E N434W (EU numbers) without letters]
light: DIQMTQSPSSLSASVGDRVTITCRASQDISSYLNWYQQKPGKAPKLLIYYTSRLHSGVPSRFSGSGSGTDFTFTISSLQPEDIATYYCQQGNTLPYTFGQGTKVEIKRTVAAPSVFIFPPSDEQLKSGTASVVCLLNNFYPREAKVQWKVDNALQSGNSQESVTEQDSKDSTYSLSSTLTLSKADYEKHKVYACEVTHQGLSSPVTKSFNRGEC
notes: EU numbering; copies: 2 + 2
B2: IgG1-F43 (antibody)
heavy: QVQLQESGPGLVKPSETLSLTCAVSGHSISHDHAWSWVRQPPGEGLEWIGFISYSGITNYNPSLQGRVTISRDNSKNTLYLQMNSLRAEDTAVYYCARSLARTTAMDYWGEGTLVTVSS[here human IgG1 constant region with M252Y N434A (EU numbers) without letters]
light: DIQMTQSPSSLSASVGDRVTITCRASQDISSYLNWYQQKPGKAPKLLIYYTSRLHSGVPSRFSGSGSGTDFTFTISSLQPEDIATYYCQQGNTLPYTFGQGTKVEIKRTVAAPSVFIFPPSDEQLKSGTASVVCLLNNFYPREAKVQWKVDNALQSGNSQESVTEQDSKDSTYSLSSTLTLSKADYEKHKVYACEVTHQGLSSPVTKSFNRGEC
notes: EU numbering; copies: 2 + 2
B3: IgG1-F60 (antibody)
heavy: QVQLQESGPGLVKPSETLSLTCAVSGHSISHDHAWSWVRQPPGEGLEWIGFISYSGITNYNPSLQGRVTISRDNSKNTLYLQMNSLRAEDTAVYYCARSLARTTAMDYWGEGTLVTVSS[here human IgG1 constant region with G385H (EU numbers) without letters]
light: DIQMTQSPSSLSASVGDRVTITCRASQDISSYLNWYQQKPGKAPKLLIYYTSRLHSGVPSRFSGSGSGTDFTFTISSLQPEDIATYYCQQGNTLPYTFGQGTKVEIKRTVAAPSVFIFPPSDEQLKSGTASVVCLLNNFYPREAKVQWKVDNALQSGNSQESVTEQDSKDSTYSLSSTLTLSKADYEKHKVYACEVTHQGLSSPVTKSFNRGEC
notes: EU numbering; copies: 2 + 2
B4: IgG1-F54 (antibody)
heavy: QVQLQESGPGLVKPSETLSLTCAVSGHSISHDHAWSWVRQPPGEGLEWIGFISYSGITNYNPSLQGRVTISRDNSKNTLYLQMNSLRAEDTAVYYCARSLARTTAMDYWGEGTLVTVSS[here human IgG1 constant region with V308P N434W (EU numbers) without letters]
light: DIQMTQSPSSLSASVGDRVTITCRASQDISSYLNWYQQKPGKAPKLLIYYTSRLHSGVPSRFSGSGSGTDFTFTISSLQPEDIATYYCQQGNTLPYTFGQGTKVEIKRTVAAPSVFIFPPSDEQLKSGTASVVCLLNNFYPREAKVQWKVDNALQSGNSQESVTEQDSKDSTYSLSSTLTLSKADYEKHKVYACEVTHQGLSSPVTKSFNRGEC
notes: EU numbering; copies: 2 + 2
B5: IgG1-F53 (antibody)
heavy: QVQLQESGPGLVKPSETLSLTCAVSGHSISHDHAWSWVRQPPGEGLEWIGFISYSGITNYNPSLQGRVTISRDNSKNTLYLQMNSLRAEDTAVYYCARSLARTTAMDYWGEGTLVTVSS[here human IgG1 constant region with I332V N434W (EU numbers) without letters]
light: DIQMTQSPSSLSASVGDRVTITCRASQDISSYLNWYQQKPGKAPKLLIYYTSRLHSGVPSRFSGSGSGTDFTFTISSLQPEDIATYYCQQGNTLPYTFGQGTKVEIKRTVAAPSVFIFPPSDEQLKSGTASVVCLLNNFYPREAKVQWKVDNALQSGNSQESVTEQDSKDSTYSLSSTLTLSKADYEKHKVYACEVTHQGLSSPVTKSFNRGEC
notes: EU numbering; copies: 2 + 2
B6: IgG1-F62 (antibody)
heavy: QVQLQESGPGLVKPSETLSLTCAVSGHSISHDHAWSWVRQPPGEGLEWIGFISYSGITNYNPSLQGRVTISRDNSKNTLYLQMNSLRAEDTAVYYCARSLARTTAMDYWGEGTLVTVSS[here human IgG1 constant region with G385H N434Y (EU numbers) without letters]
light: DIQMTQSPSSLSASVGDRVTITCRASQDISSYLNWYQQKPGKAPKLLIYYTSRLHSGVPSRFSGSGSGTDFTFTISSLQPEDIATYYCQQGNTLPYTFGQGTKVEIKRTVAAPSVFIFPPSDEQLKSGTASVVCLLNNFYPREAKVQWKVDNALQSGNSQESVTEQDSKDSTYSLSSTLTLSKADYEKHKVYACEVTHQGLSSPVTKSFNRGEC
notes: EU numbering; copies: 2 + 2
B7: IgG1-F44 (antibody)
heavy: QVQLQESGPGLVKPSETLSLTCAVSGHSISHDHAWSWVRQPPGEGLEWIGFISYSGITNYNPSLQGRVTISRDNSKNTLYLQMNSLRAEDTAVYYCARSLARTTAMDYWGEGTLVTVSS[here human IgG1 constant region with M252W N434A (EU numbers) without letters]
light: DIQMTQSPSSLSASVGDRVTITCRASQDISSYLNWYQQKPGKAPKLLIYYTSRLHSGVPSRFSGSGSGTDFTFTISSLQPEDIATYYCQQGNTLPYTFGQGTKVEIKRTVAAPSVFIFPPSDEQLKSGTASVVCLLNNFYPREAKVQWKVDNALQSGNSQESVTEQDSKDSTYSLSSTLTLSKADYEKHKVYACEVTHQGLSSPVTKSFNRGEC
notes: EU numbering; copies: 2 + 2
B8: IgG1-F61 (antibody)
heavy: QVQLQESGPGLVKPSETLSLTCAVSGHSISHDHAWSWVRQPPGEGLEWIGFISYSGITNYNPSLQGRVTISRDNSKNTLYLQMNSLRAEDTAVYYCARSLARTTAMDYWGEGTLVTVSS[here human IgG1 constant region with G385H N434W (EU numbers) without letters]
light: DIQMTQSPSSLSASVGDRVTITCRASQDISSYLNWYQQKPGKAPKLLIYYTSRLHSGVPSRFSGSGSGTDFTFTISSLQPEDIATYYCQQGNTLPYTFGQGTKVEIKRTVAAPSVFIFPPSDEQLKSGTASVVCLLNNFYPREAKVQWKVDNALQSGNSQESVTEQDSKDSTYSLSSTLTLSKADYEKHKVYACEVTHQGLSSPVTKSFNRGEC
notes: EU numbering; copies: 2 + 2
B9: IgG1-F68 (antibody)
heavy: QVQLQESGPGLVKPSETLSLTCAVSGHSISHDHAWSWVRQPPGEGLEWIGFISYSGITNYNPSLQGRVTISRDNSKNTLYLQMNSLRAEDTAVYYCARSLARTTAMDYWGEGTLVTVSS[here human IgG1 constant region with M252Y N434H (EU numbers) without letters]
light: DIQMTQSPSSLSASVGDRVTITCRASQDISSYLNWYQQKPGKAPKLLIYYTSRLHSGVPSRFSGSGSGTDFTFTISSLQPEDIATYYCQQGNTLPYTFGQGTKVEIKRTVAAPSVFIFPPSDEQLKSGTASVVCLLNNFYPREAKVQWKVDNALQSGNSQESVTEQDSKDSTYSLSSTLTLSKADYEKHKVYACEVTHQGLSSPVTKSFNRGEC
notes: EU numbering; copies: 2 + 2

In this assay the target is T1, human FcRn (soluble human FcRn complexed with β2-microglobulin) (human, UniProt P61769 partial chain, limits assumed).
T1 construct: also called hFcRn
Description: SPR, pH 7.0.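 Note: antibodies captured on a Protein L sensor chip with human FcRn injected as analyte, KD calculated from fitted association and dissociation rate constants.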 Background: SPR reads the build-up and loss of mass on a sensor chip optically.
In the case of B1, binding was characterised by a dissociation constant (Kd) of 280 nM.

Turning to B2, the affinity, expressed as Kd, was 1700 nM.

Turning to B3, the affinity, expressed as Kd, was 11000 nM.

As for B4, binding was characterised by a dissociation constant (Kd) of 84 nM.

On to B5, for which binding was characterised by a dissociation constant (Kd) of 1000 nM.

Take B6: the Kd – broadly, the free concentration of one partner at which half of the binding sites on the other are occupied at equilibrium, for simple one-to-one binding – is 1900 nM.

Take B7: the Kd amounted to 1100 nM.

Take B8: binding was put at a Kd of 970 nM.

B9: the Kd was 930 nM.
